Whole data set: some 3,600 compounds, median “viability index relative to DMSO control” near 0.81, cut for the lowest 2% near 0.13. The list shows a part of the results.
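Note: 384-well serum-free SaLSSA: MitoTracker Red CMXRos staining with saponin lysis, high-content imaging, treated-well particle count divided by plate-mean count of DMSO wells.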

The test system of the assay is Plasmodium falciparum NF54 stage V gametocytes. Description: viability index relative to DMSO control (fraction); higher = less gametocyte killing. As to conditions: 1.25 µM, incubation time: 72 h.
In turn, `c1ccc(CN2CCC(Nc3ncnc4cc(-c5ccccc5)sc34)CC2)cc1` had a viability index of 0.726.
On to `NS(=O)(=O)c1ccc(CCNC(=O)C=Cc2ccc3c(c2)OCO3)cc1`, for which the viability index turned out to be 1.2.
The value for `N#Cc1cc2nc3c(nc2cc1C#N)-c1ccccc1C3=O` was 0.0308; that for `CCc1n(CC(=O)OC2CC(C)CCC2C(C)C)c2ccccc2[n+]1C` (stereo not drawn) was 0.578.
In the case of `Cc1nc(NC(=N)N)nc2ccccc12` it was 1.12; in that of `Cc1nc2cc(-c3ccc(Br)cc3)nn2c(O)c1C`, 0.906; in that of `Cc1ccc2[nH]c3c(NCCN4CCCC4)ncnc3c2c1`, 0.538.
In the case of `COc1ccc(CNc2ncnc3c2[nH]c2cc(OC)ccc23)cc1` it was 0.74; in that of `CCOC(=O)C1=C(C)NC2=C(C(=O)CC(c3ccc(OC)c(OC)c3)C2)C1c1ccc(SC)cc1` (stereo not drawn), 0.985.
For the compound `COC(=O)C1=C(C)NC2=C(C(=O)CC(c3ccc(OC)c(OC)c3)C2)C1c1cccc(O)c1` (stereo not drawn), the viability index stood at 0.81.
The value for `Cc1cccc(NC(c2ccncc2)c2ccc3cccnc3c2O)n1` (stereo not drawn) was 0.75.
The value for `COCCN1Cc2cccc(C(=O)Nc3ccc4c(c3)OCCO4)c2C1=O` was 0.992.
Turning to `CCCCN(CC)CCNC(=O)C1c2ccccc2C(=O)N(Cc2ccc(F)cc2)C1c1ccc(OC)cc1` (stereo not drawn), the viability index stood at 0.679.
In the case of `COc1cc(C2Nc3ccc4ccccc4c3C3=C2C(=O)CC(C)(C)C3)ccc1Oc1ccc([N+](=O)[O-])cc1C(F)(F)F` (stereo not drawn) it was 0.449; in that of `COc1cc(C(=O)Nc2c3c(nn2-c2cc(C)cc(C)c2)CSC3)cc(OC)c1OC`, 0.636.
The value for `COc1ccc(NC(=O)Cn2ncc3ccccc32)cc1OC` was 0.751.
The value for `CCOC(=O)c1ccc(N2C(=O)c3[nH]nc(C)c3C2c2ccccc2OC)cc1` (stereo not drawn) was 0.715.
`OCCNc1nc(Nc2ccc(Br)cc2)nc2ccccc12` returned a viability index of 0.84.
The value for `Clc1ccc(Nc2nc(Nc3ccc(Cl)cc3)c3ccccc3n2)cc1` was 1.01.
The value for `Cc1ccc(S(=O)(=O)N=C2C=C(Sc3nc[nH]n3)C(=O)c3ccccc32)cc1` was 1.03.
The compound `CCN1CCN(Cc2c(O)ccc3c(=O)c(Oc4ccccc4Br)c(C(F)(F)F)oc23)CC1` came in with a viability index of 0.672.
The value for `CCc1ccccc1NC(=O)C1c2ccccc2C(=O)N(CC(C)C)C1c1cccs1` (stereo not drawn) was 0.61; that for `COC(=O)CC(NC(=O)c1ccc(C)cc1)c1ccc2c(c1)OCO2` (stereo not drawn) was 0.718.
In the case of `COc1ccc(CN(Cc2cc3cc(OC)c(OC)cc3[nH]c2=O)C(=S)NCCc2ccc(OC)c(OC)c2)cc1` it was 0.979; in that of `CC(C)Nc1nc(-c2cccnc2)nc2ccccc12`, 1.12; in that of `OCCNc1nc(Nc2ccc(Cl)cc2)nc2ccccc12`, 1.31.
The value for `OCCN(CCO)CC(O)Cn1c2ccc(Br)cc2c2cc(Br)ccc21` (stereo not drawn) was 0.917; that for `CC(NCCN1CCNCC1)c1cc(C(C)(C)C)cc2c1CCC2(C)C` (stereo not drawn) was 0.104.
`CN1CCCN(C(=O)C2CC23CCN(Cc2ccc(N(C)c4ccccc4)cc2)CC3)CC1` (stereo not drawn): the viability index was determined as 0.548.
The value for `CCN1CCC(N2C[C@H](n3cc(C(=O)OC)nn3)C[C@H]2C(=O)NCc2cccc(C(F)(F)F)c2)CC1` was 1.21.
The value for `CCOC(=O)C1=C(C)NC2=C(C(=O)CC(c3ccc(OC)c(OC)c3)C2)C1c1ccc([N+](=O)[O-])cc1` (stereo not drawn) was 0.336; that for `C[n+]1ccccc1C=Cc1cc(Br)ccc1O` was 0.819; that for `Cc1ccc(CNC(=O)CSc2nc3ccsc3c(=O)n2CCCCCC(=O)NCCc2ccccc2)cc1` was 0.83.
The value for `c1ccc2c(c1)ccc1cc3cccc[n+]3cc12` was 0.0821; that for `CC1=C(C(=O)OC(C)C)C(c2ccc(Br)cc2)C2=C(CC(c3ccc(Cl)cc3)CC2=O)N1` (stereo not drawn) was 0.845; that for `CC1=C(C(=O)OC(C)C)C(c2ccc(F)cc2)C2=C(CC(c3ccc(Cl)cc3)CC2=O)N1` (stereo not drawn) was 0.687.
Take `COc1cc2c(cc1OC)C1=NC(=O)C(C(C)C)N1C(SCc1csc(Cl)n1)=N2` (stereo not drawn): the viability index was 0.767.
The value for `CCOc1ccc(-c2noc(-c3ccncc3)n2)cc1OCC` was 0.956.

These data come from the supplement of paper PMC4723716.
